Assay results from PubChem BioAssay (Tox21).
Several values for one entry are separate records, joined by “and”; a condition that tells them apart may be missing. Equal values may be shown once. This list was built around the results that the source calls inconclusive (neither active nor inactive); the mix of calls is not that of the screen. For some of these results: Potencies of inconclusive entries are doubtful fits and often do not repeat. Activity calls are given as the source filed them. Unless noted, calls come from the whole dose curve; as a rule, active = well fitted curve in the direction sought with a large enough effect in the repeat runs; inconclusive = weak or mixed curves; inactive = no such curve, though single readings can be large; an effect the other way counts as inactive or inconclusive.

Experiments:
[1] = qHTS assay to identify small molecule agonists of the endoplasmic reticulum stress response signaling pathway - cell viability counter screen (AID 1159517; calls by dose curve; note: nearly all actives have a fitted effect of over 50% in size)
Summary of the method: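 CellTiter-Glo was added to wells already read for beta-lactamase FRET, and luminescence was recorded 30 min later. Cells: ESRE-bla HeLa, 1,500 per well, compound exposure 5 hr at 37 C.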

[2] = qHTS assay to identify small molecule agonists of the AP-1 signaling pathway - cell viability counter screen (AID 1159525; calls by dose curve; note: nearly all actives have a fitted effect of over 55% in size)
Summary of the method: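 ME-180 AP-1-bla, 2500 cells/well, Opti-MEM + 0.5% dialyzed FBS; overnight 37 °C; cpd 15-pt titration, 5 h 37 °C; CellTiter-Glo 30 min RT; luminescence read; normalised to TOAB and DMSO controls.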

[3] = qHTS assay to identify small molecule agonists of the AP-1 signaling pathway (AID 1159526; calls by dose curve; for activation: % is set by controls: 0 for no effect and ±100 for the full control effect); conditions: ME-180 (cervical carcinoma) AP-1-bla reporter, beta-lactamase FRET ratio, 5 h; activation: at 76.8 µM (top of the series) unless noted
[4] = target: Retinoic acid receptor RXR-alpha (Homo sapiens) (UniProt P19793); assay: qHTS assay to identify small molecule agonists of the RXR signaling pathway (AID 1159527; calls by dose curve; note: nearly all actives have a fitted effect of over 35% in size; for activation: % is set by controls: 0 for no effect and ±100 for the full control effect); conditions: HEK293T RXRa-UAS-bla, beta-lactamase ratio, 16 h; activation: at 76.8 µM (top of the series) unless noted
UniProt P19793, sequence (P19793 whole entry, looked up): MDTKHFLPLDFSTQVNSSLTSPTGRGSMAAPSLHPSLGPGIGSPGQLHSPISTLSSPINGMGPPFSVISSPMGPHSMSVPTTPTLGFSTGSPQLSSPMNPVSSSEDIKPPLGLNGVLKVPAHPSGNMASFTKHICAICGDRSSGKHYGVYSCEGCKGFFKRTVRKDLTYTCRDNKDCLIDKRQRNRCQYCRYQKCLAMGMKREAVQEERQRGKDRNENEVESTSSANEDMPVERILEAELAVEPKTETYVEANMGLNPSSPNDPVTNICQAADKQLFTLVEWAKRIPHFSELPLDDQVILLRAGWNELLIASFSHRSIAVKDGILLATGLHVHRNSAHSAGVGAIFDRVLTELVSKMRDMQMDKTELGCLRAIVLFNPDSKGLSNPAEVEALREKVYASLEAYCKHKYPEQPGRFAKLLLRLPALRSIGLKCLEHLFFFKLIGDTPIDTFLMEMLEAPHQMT
Summary of the method: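 Agonist-mode beta-lactamase reporter assay: HEK 293T RXR-alpha-UAS-bla cells treated 16 hr at 37 C with compounds, 9-cis retinoic acid as positive control. LiveBLAzer FRET substrate, 405 nm excitation, 460/530 nm emission.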

[5] = qHTS assay to identify small molecule agonists of the RXR signaling pathway - cell viability counter screen (AID 1159529); note: nearly all actives have a fitted effect of over 50% in size
Summary of the method: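 CellTiter-Glo luminescence gave viability in the wells also read for beta-lactamase. Cells (RXR-alpha-UAS-bla HEK 293T, 2% charcoal-stripped FBS medium) had 5 hr plating, then 16 hr compound exposure at 37 C; tetraoctyl ammonium bromide served as positive control.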

[6] = qHTS assay to identify small molecule agonists of the retinoic acid receptor (RAR) signaling pathway (AID 1159553); conditions: C3RL4 RARE luciferase reporter, agonist, 6 h; activation: at 73.3 µM (top of the series) unless noted; for activation: % is set by controls: 0 for no effect and ±100 for the full control effect
Summary of the method: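 Luminescence from a RARE-driven luciferase reporter in C3RL4 cells served as the read-out, measured after 30 min with detection reagent at room temperature. Compounds in DMSO were applied for 6 hr at 37 C following overnight seeding.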

[7] = target: Luciferin 4-monooxygenase (Photinus pyralis) (UniProt P08659); assay: qHTS assay to identify small molecule inhibitors of firefly luciferase (AID 1224835); note: nearly all actives have a fitted effect of over 25% in size
UniProt P08659, sequence (P08659 whole entry, looked up): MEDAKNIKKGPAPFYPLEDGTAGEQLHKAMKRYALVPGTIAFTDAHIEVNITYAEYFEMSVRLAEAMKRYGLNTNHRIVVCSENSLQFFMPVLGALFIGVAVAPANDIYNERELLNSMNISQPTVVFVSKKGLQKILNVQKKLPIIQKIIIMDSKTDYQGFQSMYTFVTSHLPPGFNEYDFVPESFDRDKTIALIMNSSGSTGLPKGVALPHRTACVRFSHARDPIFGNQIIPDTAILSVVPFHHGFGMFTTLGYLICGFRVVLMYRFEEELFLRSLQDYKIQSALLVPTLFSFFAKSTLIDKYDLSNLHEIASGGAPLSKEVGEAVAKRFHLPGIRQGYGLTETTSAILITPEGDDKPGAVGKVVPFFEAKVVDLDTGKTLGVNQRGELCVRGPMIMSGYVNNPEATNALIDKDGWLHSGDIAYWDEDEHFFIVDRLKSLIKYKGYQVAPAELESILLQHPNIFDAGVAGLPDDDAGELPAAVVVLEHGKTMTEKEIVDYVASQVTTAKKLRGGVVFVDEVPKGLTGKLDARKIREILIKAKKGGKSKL
Summary of the method: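 Quantitative HTS format; KM concentrations of both substrates. Purified P. pyralis FLuc activity quantified from luminescence images.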

[8] = qHTS assay to identify small molecule agonists of the constitutive androstane receptor (CAR) signaling pathway - cell viability counter screen (AID 1224836); note: nearly all actives have a fitted effect of over 45% in size
Summary of the method: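 Cell viability multiplexed with the CAR agonist screen: CellTiter-Fluor fluorescence after 23 hr at 37 C. HepG2-CYP2B6-hCAR cells got compounds at 15 concentrations with PK11195 at 0.75 uM final.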

[9] = qHTS assay to identify small molecule antagonists of the constitutive androstane receptor (CAR) signaling pathway - cell viability counter screen (AID 1224837); note: nearly all actives have a fitted effect of over 45% in size
Summary of the method: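 HepG2-CYP2B6-hCAR cells, 2500/well, 4 hr pre-incubation; compound titration, 15 conc.; CITCO 50 nM final; 23 hr, 37 C/5% CO2; CellTiter-Fluor, fluorescence intensity.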

[10] = target: Nuclear receptor ROR-gamma (Homo sapiens) (UniProt P51449); assay: qHTS assay to identify small molecule antagonists of the retinoid-related orphan receptor gamma (ROR-gamma) signaling pathway (AID 1159521; note: nearly all actives have a fitted effect of over 50% in size)
Summary of the method: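 Antagonist read-out: drop in luminescence (ONE-Glo) from an RORE-LUC reporter in CHO cells with doxycycline-inducible ROR-gamma; 2 hr compound pretreatment, 1 uM doxycycline, 16 hr incubation at 37 C.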

[11] = qHTS assay to identify small molecule antagonists of the retinoid acid receptor (RAR) signaling pathway - cell viability counter screen (AID 1159551); note: nearly all actives have a fitted effect of over 35% in size
Summary of the method: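 Luminescent ATP quantitation (CellTiter-Glo) gave cell viability in C3RL4 cells exposed to test chemicals for 6 h at 37 C alongside 1 uM final retinol.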

[12] = qHTS assay to identify small molecule antagonists of the estrogen related receptor (ERR) signaling pathway from Tox21 library - cell viability counter screen (AID 1224834); note: nearly all actives have a fitted effect of over 30% in size
Summary of the method: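 Fluorescence from CellTiter-Fluor gives the viability read-out, taken 30 min after reagent addition. Before that, ERR cells seeded 6 h earlier were incubated with compounds for 17.5 h at 37 C.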

[13] = qHTS assay to identify small molecule antagonists of the retinoid-related orphan receptor gamma (ROR-gamma) signaling pathway - cell viability counter screen (AID 1159520); note: nearly all actives have a fitted effect of over 50% in size
Summary of the method: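 Tet-on ROR gamma CHO cells (1,000/well) were plated 4 hr, given compounds in DMSO for 2 hr at 37 C, then induced with 1 uM final doxycycline for 16 hr. Viability was read as ATP by CellTiter-Glo luminescence after 30 min.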

[14] = qHTS assay to identify small molecule antagonists of the retinoic acid receptor (RAR) signaling pathway (AID 1159552; note: nearly all actives have a fitted effect of over 50% in size)
Summary of the method: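 Luminescent RARE reporter read-out in C3RL4 cells: 6 hr co-treatment at 37 C of test compounds with retinol at 1 uM final. Cells plated overnight beforehand; luciferase reagent incubated 30 min at room temperature before reading.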
Potency is the fitted concentration of half-maximal effect; tags give direction and shape of the fitted curve or compound fluorescence and quenching.

[O]=[Cr](=[O])([OH])[O][Cr](=[O])(=[O])[OH]
Potency [1]: active: 22.1 µM and active: 34.6 µM
Potency [2]: inconclusive: 2.75 µM [cytotoxic, full curve, poor fit]
activation [3]: inconclusive: 24.4%
Potency [4]: inconclusive: 0.615 µM [rising, partial curve]
activation [4]: inconclusive: -0.732%
Potency [5]: inconclusive: 494 nM [cytotoxic, full curve] and active: 2.7 nM
activation [6]: inconclusive: 3.1% [phenotype inactive]
Potency [7]: inconclusive: 32 µM [inhibitor, single point]
Potency [8]: active: 15.5 µM and active: 15.3 µM
Potency [9]: active: 11 µM and active: 9.67 µM

O=C1C(I)=CC(=C(c2cc(I)c(O)c(I)c2)c2ccccc2C(=O)O)C=C1I
Potency [1]: inconclusive: 30.1 µM [rising, single point]
Potency [10]: inconclusive: 33.5 µM [inhibitor, single point]
Potency [2]: inconclusive: 26.8 µM [rising, single point]
Potency [11]: inactive
Potency [12]: inconclusive: 37.6 µM [cytotoxic, single point]
Potency [7]: inconclusive: 43.6 µM [inhibitor]

O=[N+]([O-])/C=C/c1ccccc1
Potency [1]: inconclusive: 0.005 µM [cytotoxic, full curve, poor fit]
Potency [10]: active: 5.54 µM and active: 9.69 µM
Potency [3]: inconclusive: 17.7 µM [cytotoxic, partial curve, poor fit] and inconclusive: 12.3 µM [activator, single point]
Potency [5]: inconclusive: 2.22 µM [cytotoxic, full curve, poor fit] and inconclusive: 24.5 µM [cytotoxic]
Potency [12]: inconclusive: 68.6 µM [cytotoxic, single point]
Potency [8]: active: 27.8 µM and active: 24.3 µM
Potency [9]: inconclusive: 27.8 µM [cytotoxic] and active: 30.6 µM

CC(O)C(=O)[O][Hg][c]1ccccc1 (stereo not drawn)
Potency [1]: active: 1.1 µM
Potency [10]: active: 0.486 µM
Potency [2]: active: 2.45 µM
Potency [3]: inconclusive: 2.45 µM [falling, full curve]
Potency [4]: inconclusive: 0.776 µM [inhibitor, partial curve]
Potency [5]: active: 1.95 µM
Potency [11]: active: 13.7 µM
Potency [12]: active: 4.33 µM
Potency [9]: active: 4.86 µM

CSCCCN=C=S
Potency [1]: active: 19.5 µM
Potency [13]: inconclusive: 61.1 µM [cytotoxic, partial curve, poor fit]
Potency [14]: inactive
Potency [6]: inconclusive: 77 µM [activator, partial curve, poor fit]
Potency [12]: inconclusive: 48.6 µM [cytotoxic, partial curve, poor fit]
Potency [9]: inconclusive: 38.6 µM [cytotoxic, partial curve, poor fit]

S=C=Nc1cccc2ccccc12
Potency [1]: active: 19.3 µM
Potency [10]: inconclusive: 24.1 µM [inhibitor, partial curve, poor fit]
Potency [2]: active: 24.3 µM
Potency [3]: inconclusive: 21.7 µM
Potency [4]: inconclusive: 0.768 µM [inhibitor, partial curve, poor fit]
Potency [5]: inconclusive: 24.3 µM [cytotoxic, partial curve]
Potency [6]: inconclusive: 67.9 µM [activator, partial curve, poor fit]
Potency [12]: active: 67.9 µM
Potency [9]: inconclusive: 67.9 µM [cytotoxic, single point]

O=C1c2ccccc2C(=O)C1C(=O)C(c1ccccc1)c1ccc(Cl)cc1 (stereo not drawn)
Potency [1]: inconclusive: 21.9 µM [cytotoxic, partial curve, poor fit]
Potency [10]: active: 5.45 µM
Potency [3]: inconclusive: 34.7 µM [inhibitor]
Potency [4]: inconclusive: 3.89 µM [inhibitor, partial curve, poor fit]
Potency [5]: inconclusive: 49 µM [cytotoxic, partial curve, poor fit]
Potency [12]: inconclusive: 13.7 µM [cytotoxic, full curve]
Potency [8]: inconclusive: 61.1 µM [cytotoxic, partial curve, poor fit]

[CH3][Hg][Cl]
Potency [1]: active: 21.8 µM
Potency [10]: active: 3.05 µM
Potency [2]: inconclusive: 12.3 µM [cytotoxic, single point]
Potency [3]: inconclusive: 21.8 µM [falling, single point]
Potency [4]: inconclusive: 3.88 µM [rising, partial curve]
Potency [11]: inconclusive: 27.2 µM [cytotoxic, single point]
Potency [6]: inconclusive: 7.67 µM [inhibitor, full curve]
Potency [9]: inconclusive: 24.3 µM [cytotoxic]

NNC(=S)NN
Potency [1]: inconclusive: 6.16 µM [rising, partial curve, poor fit]
Potency [10]: inconclusive: 54.5 µM [inhibitor, partial curve, poor fit]
Potency [5]: inconclusive: 50.4 µM [cytotoxic, partial curve, poor fit] and inconclusive: 24.5 µM [cytotoxic, partial curve, poor fit]
Potency [12]: inconclusive: 62.8 µM [cytotoxic, single point] and inconclusive: 68.6 µM [cytotoxic, single point]

CCCCC/C=C\C/C=C\C/C=C\C/C=C\CCCC(=O)NCC(=O)O
Potency [1]: inconclusive: 26.8 µM [cytotoxic, single point]
Potency [2]: inconclusive: 26.8 µM [cytotoxic, single point]
Potency [3]: inconclusive: 10.7 µM [falling, partial curve]
Potency [4]: inactive
Potency [5]: inconclusive: 26.8 µM [cytotoxic, single point]

C=CC(=O)OCCCCOC(=O)C=C
Potency [1]: inconclusive: 69.2 µM [cytotoxic, partial curve, poor fit]
Potency [2]: inconclusive: 54.9 µM [rising, single point]
Potency [3]: inconclusive: 13.8 µM [cytotoxic]
Potency [4]: inconclusive: 61.6 µM [inhibitor, single point]
Potency [11]: inconclusive: 38.6 µM [rising, partial curve]
Potency [8]: inconclusive: 68.6 µM [cytotoxic, partial curve]
Potency [9]: active: 61.1 µM

COC[C@@H](NC(C)=O)C(=O)NCc1ccccc1
Potency [1]: inactive
Potency [3]: inactive

CCC[CH2][Sn]([CH2]CCC)([O]C(C)=O)[O]C(C)=O
Potency [1]: active: 1.97 µM
Potency [2]: inconclusive: 0.879 µM [rising, full curve]
Potency [3]: inconclusive: 0.0783 µM [activator, single point]
Potency [4]: inconclusive: 0.139 µM [full curve]
Potency [5]: inconclusive: 0.0879 µM [cytotoxic, full curve, poor fit]
Potency [14]: active: 0.138 µM
Potency [6]: inconclusive: 61.7 µM [inhibitor]
Potency [12]: active: 0.138 µM
